# Some of the results follow.
# B1: PNA (Arachis hypogaea), P02872 (protein)
# chain: MKPFCVFLTFFLLLAASSKKVDSAETVSFNFNSFSEGNPAINFQGDVTVLSNGNIQLTNLNKVNSVGRVLYAMPVRIWSSATGNVASFLTSFSFEMKDIKDYDPADGIIFFIAPEDTQIPAGSIGGGTLGVSDTKGAGHFVGVEFDTYSNSEYNDPPTDHVGIDVNSVDSVKTVPWNSVSGAVVKVTVIYDSSTKTLSVAVTNDNGDITTIAQVVDLKAKLPERVKFGFSASGSLGGRQIHLIRSWSFTSTLITTTRRSIDNNEKKIMNMASA
# How the values were obtained:
# Test in all cases: glycan array binding signal (z-score within array); higher = stronger binding
# Settings in all cases: glycan notation: IUPAC condensed, linker removed
# [1] = target: Neu5Ac(a2-8)Neu5Ac(a2-3)Gal(b1-3)GalNAc(b1-4)[Neu5Ac(a2-3)]Gal(b1-4)Glc
# Procedure, shortened: (§1)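 Glycan array binding is given as a within-array Z-score, which can be read as non-binding when negative. The arrays, 3228 of them, came from the Consortium for Functional Glycomics database and were retained only where the protein sequence was available. Z-scores were averaged across arrays of the same protein sequence at different concentrations or buffers and across linkers.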
# [2] = target: Neu5Ac(a2-8)Neu5Ac(a2-3)Gal(b1-3)GalNAc(b1-4)[Neu5Ac(a2-8)Neu5Ac(a2-3)]Gal(b1-4)Glc
# Procedure, shortened: as §1
# [3] = target: Neu5Ac(a2-8)Neu5Ac(a2-3)Gal(b1-4)Glc
# Procedure, shortened: as §1
# [4] = target: Neu5Ac(a2-8)Neu5Ac(a2-3)Gal(b1-4)GlcNAc
# Procedure, shortened: as §1
# [5] = target: Neu5Ac(a2-8)Neu5Ac(a2-3)[Gal(b1-3)GalNAc(b1-4)]Gal(b1-4)Glc
# Procedure, shortened: as §1
# [6] = target: Neu5Ac(a2-8)Neu5Ac(a2-3)[GalNAc(b1-4)]Gal(b1-4)Glc
# Procedure, shortened: as §1
# [7] = target: Neu5Ac(a2-8)Neu5Ac(a2-6)Gal
# Procedure, shortened: as §1
# [8] = target: Neu5Ac(a2-8)Neu5Ac(a2-6)Glc
# Procedure, shortened: as §1
# [9] = target: Neu5Ac(a2-8)Neu5Ac(a2-8)Neu5Ac
# Procedure, shortened: as §1
# [10] = target: Neu5Ac(a2-8)Neu5Ac(a2-8)Neu5Ac(a2-3)Gal(b1-4)Glc
# Procedure, shortened: as §1
# [11] = target: Neu5Ac(a2-8)Neu5Ac(a2-8)Neu5Ac(a2-3)[Gal(b1-3)GalNAc(b1-4)]Gal(b1-4)Glc
# Procedure, shortened: as §1
# [12] = target: Neu5Ac(a2-8)Neu5Ac(a2-8)Neu5Ac(a2-3)[GalNAc(b1-4)]Gal(b1-4)Glc
# Procedure, shortened: as §1
# [13] = target: Neu5Ac(a2-8)Neu5Ac(a2-8)Neu5Ac(a2-6)Gal
# Procedure, shortened: as §1
# [14] = target: Neu5Ac(a2-8)Neu5Ac(a2-8)Neu5Ac(a2-8)Neu5Ac
# Procedure, shortened: as §1
# [15] = target: Neu5Ac(a2-8)Neu5Ac(a2-8)Neu5Ac(a2-8)Neu5Ac(a2-3)[GalNAc(b1-4)]Gal(b1-4)Glc
# Procedure, shortened: as §1
# [16] = target: Neu5Ac(a2-8)Neu5Ac(a2-8)Neu5Ac(a2-8)Neu5Ac(a2-8)Neu5Ac
# Procedure, shortened: as §1
# [17] = target: Neu5Ac(a2-8)Neu5Ac(a2-8)Neu5Ac(a2-8)Neu5Ac(a2-8)Neu5Ac(a2-8)Neu5Ac
# Procedure, shortened: as §1
# [18] = target: Neu5Ac(a2-8)Neu5Ac(a2-8)Neu5Ac(a2-8)Neu5Ac(a2-8)Neu5Ac(a2-8)Neu5Ac(a2-8)Neu5Ac
# Procedure, shortened: as §1
# [19] = target: Neu5Ac(a2-8)Neu5Ac(a2-8)Neu5Ac(a2-8)Neu5Ac(a2-8)Neu5Ac(a2-8)Neu5Ac(a2-8)Neu5Ac(a2-8)Neu5Ac
# Procedure, shortened: as §1
# [20] = target: Neu5Ac(a2-8)Neu5Ac(a2-8)Neu5Ac(a2-8)Neu5Ac(a2-8)Neu5Ac(a2-8)Neu5Ac(a2-8)Neu5Ac(a2-8)Neu5Ac(a2-8)Neu5Ac
# Procedure, shortened: as §1
# [21] = target: Neu5Ac(a2-8)Neu5Ac(a2-8)Neu5Ac(a2-8)Neu5Ac(a2-8)Neu5Ac(a2-8)Neu5Ac(a2-8)Neu5Ac(a2-8)Neu5Ac(a2-8)Neu5Ac(a2-8)Neu5Ac
# Procedure, shortened: as §1
# [22] = target: Neu5Ac(a2-8)Neu5Gc(a2-3)Gal(b1-4)GlcNAc
# Procedure, shortened: as §1
# [23] = target: Neu5Ac(a2-9)Neu5Ac(a2-3)Gal(b1-4)Glc
# Procedure, shortened: as §1
# Neu5Ac(b1-6)GalNAc = target: Neu5Ac(b1-6)GalNAc
# Procedure, shortened: as §1
# Neu5Ac(b2-3)Gal(b1-4)Glc = target: Neu5Ac(b2-3)Gal(b1-4)Glc
# Procedure, shortened: as §1
# Neu5Ac(b2-6)Gal(b1-4)Glc = target: Neu5Ac(b2-6)Gal(b1-4)Glc
# Procedure, shortened: as §1
# [24] = target: Neu5Ac(b2-6)Gal(b1-4)GlcNAc
# Procedure, shortened: as §1
# Neu5Ac(b2-6)GalNAc = target: Neu5Ac(b2-6)GalNAc
# Procedure, shortened: as §1
# [25] = target: Neu5Ac9Ac(a2-3)Gal(b1-3)GlcNAc
# Procedure, shortened: as §1
# [26] = target: Neu5Ac9Ac(a2-3)Gal(b1-3)[Fuc(a1-4)]GlcNAc
# Procedure, shortened: as §1
# [27] = target: Neu5Ac9Ac(a2-3)Gal(b1-4)GlcNAc
# Procedure, shortened: as §1
# [28] = target: Neu5Ac9Ac(a2-3)Gal(b1-4)[Fuc(a1-3)]GlcNAc
# Procedure, shortened: as §1
# [29] = target: Neu5Ac9Ac(a2-3)Gal(b1-4)[Fuc(a1-3)]GlcNAc(b1-3)Gal
# Procedure, shortened: as §1
# [30] = target: Neu5Ac9Ac(a2-6)Gal(b1-4)GlcNAc
# Procedure, shortened: as §1
# [31] = target: Neu5Ac9Me(a2-3)Gal(b1-4)Glc
# Procedure, shortened: as §1
# [32] = target: Neu5Gc(a2-3)Gal(b1-3)GlcNAc
# Procedure, shortened: as §1
# [33] = target: Neu5Gc(a2-3)Gal(b1-3)GlcNAc(b1-3)Gal(b1-4)Glc
# Procedure, shortened: as §1
# [34] = target: Neu5Gc(a2-3)Gal(b1-3)[Fuc(a1-4)]GlcNAc
# Procedure, shortened: as §1
# Neu5Gc(a2-3)Gal(b1-4)Glc = target: Neu5Gc(a2-3)Gal(b1-4)Glc
# Procedure, shortened: as §1
# [35] = target: Neu5Gc(a2-3)Gal(b1-4)GlcNAc
# Procedure, shortened: as §1
# [36] = target: Neu5Gc(a2-3)Gal(b1-4)GlcNAc(b1-3)Gal(b1-4)GlcNAc(b1-2)Man(a1-3)[Neu5Gc(a2-3)Gal(b1-4)GlcNAc(b1-3)Gal(b1-4)GlcNAc(b1-2)Man(a1-6)]Man(b1-4)GlcNAc(b1-4)GlcNAc
# Procedure, shortened: as §1
# [37] = target: Neu5Gc(a2-3)Gal(b1-4)[Fuc(a1-3)]GlcNAc
# Procedure, shortened: as §1
# [38] = target: Neu5Gc(a2-3)Gal(b1-4)[Fuc(a1-3)]GlcNAc(b1-3)Gal
# Procedure, shortened: as §1
# [39] = target: Neu5Gc(a2-6)Gal(b1-3)GlcNAc(b1-3)Gal(b1-4)Glc
# Procedure, shortened: as §1
# [40] = target: Neu5Gc(a2-6)Gal(b1-4)GlcNAc
# Procedure, shortened: as §1
# [41] = target: Neu5Gc(a2-6)Gal(b1-4)GlcNAc(b1-2)Man(a1-3)[Neu5Gc(a2-6)Gal(b1-4)GlcNAc(b1-2)Man(a1-6)]Man(b1-4)GlcNAc(b1-4)GlcNAc
# Procedure, shortened: as §1
# Neu5Gc(a2-6)GalNAc = target: Neu5Gc(a2-6)GalNAc
# Procedure, shortened: as §1
# [42] = target: Neu5Gc(a2-8)Neu5Ac(a2-3)Gal(b1-4)GlcNAc
# Procedure, shortened: as §1
# [43] = target: Neu5Gc(a2-8)Neu5Gc(a2-3)Gal(b1-4)GlcNAc
# Procedure, shortened: as §1
# [44] = target: Neu5Gc(a2-8)Neu5Gc(a2-3)Gal(b1-4)GlcNAc(b1-3)Gal(b1-4)GlcNAc
# Procedure, shortened: as §1
# [45] = target: Neu5Gc(a2-8)Neu5Gc(a2-6)Gal(b1-4)GlcNAc
# Procedure, shortened: as §1
# [46] = target: Neu5Gc(b2-6)Gal(b1-4)GlcNAc
# Procedure, shortened: as §1
# Rha(a1-6)Glc = target: Rha(a1-6)Glc
# Procedure, shortened: as §1
# [47] = target: Xyl(a1-6)Glc(b1-4)[Xyl(a1-6)]Glc(b1-4)[Xyl(a1-6)]Glc(b1-4)Glc
# Procedure, shortened: as §1
# [48] = target: Xyl(b1-2)[Man(a1-3)][Man(a1-6)]Man(b1-4)GlcNAc(b1-4)GlcNAc
# Procedure, shortened: as §1
# [49] = target: Xyl(b1-2)[Man(a1-3)][Man(a1-6)]Man(b1-4)GlcNAc(b1-4)[Fuc(a1-3)]GlcNAc
# Procedure, shortened: as §1
# [50] = target: Xyl(b1-4)Xyl(b1-4)Xyl(b1-4)Xyl(b1-4)Xyl
# Procedure, shortened: as §1
# [51] = target: Xyl(b1-4)Xyl(b1-4)Xyl(b1-4)Xyl(b1-4)Xyl(b1-4)Xyl
# Procedure, shortened: as §1
binder,measurement,setting,value
B1,glycan array binding signal (z-score),[1],-0.283
same,glycan array binding signal (z-score),[2],-0.238
same,glycan array binding signal (z-score),[3],-0.189
same,glycan array binding signal (z-score),[4],-0.272
same,glycan array binding signal (z-score),[5],1.45
same,glycan array binding signal (z-score),[6],-0.266
same,glycan array binding signal (z-score),[7],-0.195
same,glycan array binding signal (z-score),[8],-0.195
same,glycan array binding signal (z-score),[9],-0.193
same,glycan array binding signal (z-score),[10],-0.219
same,glycan array binding signal (z-score),[11],0.036
same,glycan array binding signal (z-score),[12],-0.109
same,glycan array binding signal (z-score),[13],-0.195
same,glycan array binding signal (z-score),[14],-0.195
same,glycan array binding signal (z-score),[15],-0.117
same,glycan array binding signal (z-score),[16],-0.195
same,glycan array binding signal (z-score),[17],-0.195
same,glycan array binding signal (z-score),[18],-0.195
same,glycan array binding signal (z-score),[19],-0.195
same,glycan array binding signal (z-score),[20],-0.195
same,glycan array binding signal (z-score),[21],-0.195
same,glycan array binding signal (z-score),[22],-0.216
same,glycan array binding signal (z-score),[23],-0.195
same,glycan array binding signal (z-score),Neu5Ac(b1-6)GalNAc,-0.202
same,glycan array binding signal (z-score),Neu5Ac(b2-3)Gal(b1-4)Glc,-0.195
same,glycan array binding signal (z-score),Neu5Ac(b2-6)Gal(b1-4)Glc,-0.195
same,glycan array binding signal (z-score),[24],-0.166
same,glycan array binding signal (z-score),Neu5Ac(b2-6)GalNAc,-0.169
same,glycan array binding signal (z-score),[25],-0.192
same,glycan array binding signal (z-score),[26],-0.195
same,glycan array binding signal (z-score),[27],-0.073
same,glycan array binding signal (z-score),[28],-0.195
same,glycan array binding signal (z-score),[29],-0.195
same,glycan array binding signal (z-score),[30],-0.169
same,glycan array binding signal (z-score),[31],-0.195
same,glycan array binding signal (z-score),[32],-0.177
same,glycan array binding signal (z-score),[33],-0.195
same,glycan array binding signal (z-score),[34],-0.162
same,glycan array binding signal (z-score),Neu5Gc(a2-3)Gal(b1-4)Glc,-0.14
same,glycan array binding signal (z-score),[35],-0.178
same,glycan array binding signal (z-score),[36],-0.183
same,glycan array binding signal (z-score),[37],-0.176
same,glycan array binding signal (z-score),[38],-0.195
same,glycan array binding signal (z-score),[39],-0.195
same,glycan array binding signal (z-score),[40],-0.159
same,glycan array binding signal (z-score),[41],-0.195
same,glycan array binding signal (z-score),Neu5Gc(a2-6)GalNAc,-0.162
same,glycan array binding signal (z-score),[42],-0.215
same,glycan array binding signal (z-score),[43],-0.154
same,glycan array binding signal (z-score),[44],-0.195
same,glycan array binding signal (z-score),[45],-0.324
same,glycan array binding signal (z-score),[46],-0.074
same,glycan array binding signal (z-score),Rha(a1-6)Glc,-0.195
same,glycan array binding signal (z-score),[47],-0.195
same,glycan array binding signal (z-score),[48],-0.195
same,glycan array binding signal (z-score),[49],-0.195
same,glycan array binding signal (z-score),[50],-0.195
same,glycan array binding signal (z-score),[51],-0.195
